Assay results reported in the supplement of paper PMC10369915.
Some of the results follow. Cut-off read from the data, not from the text of the source: active = 3.2 or more and inactive = the rest. Most of these values are background signal.

biological target: SHP2 C-SH2 domain E139D; test: enrichment score (SH2-bound / input frequency) (ratio); bacterial display of known human phosphotyrosine sites (pTyr-Var adds point mutants) read by sequencing; higher = stronger binding; tyrosines were phosphorylated by kinases first; conditions: peptide library: Human pTyr
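Note: displayed peptides selected on beads carrying the immobilized SH2 domain, with library peptides lacking any tyrosine serving as negative controls.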

Enrichment score, inactive:
STNSEDNYVPMNPGS [GAB2_HUMAN_452] 0.581
DVSLDRGYTSDSEVY [GBF1_HUMAN_1316] 0.575
YDASSIQYRKAGLPR [GBRB2_HUMAN_441] 0.75
VPVDPATYGQFAGGD [GELS_HUMAN_465_YA] 0.583
VPVPTNLYGDFFTGD [GELS_HUMAN_86] 0.608

biological target: SHP2 C-SH2 domain wild-type; test: as above; conditions: peptide library: Human pTyr

Enrichment score, inactive:
STNSEDNYVPMNPGS [GAB2_HUMAN_452] 0.46
DVSLDRGYTSDSEVY [GBF1_HUMAN_1316] 0.48
YDASSIQYRKAGLPR [GBRB2_HUMAN_441] 0.666
VPVDPATYGQFAGGD [GELS_HUMAN_465_YA] 0.636
VPVPTNLYGDFFTGD [GELS_HUMAN_86] 0.609

biological target: SHP2 N-SH2 domain L43F; test: as above; conditions: peptide library: Human pTyr

Enrichment score, inactive:
STNSEDNYVPMNPGS [GAB2_HUMAN_452] 0.552
DVSLDRGYTSDSEVY [GBF1_HUMAN_1316] 0.644
YDASSIQYRKAGLPR [GBRB2_HUMAN_441] 0.729
VPVDPATYGQFAGGD [GELS_HUMAN_465_YA] 0.514
VPVPTNLYGDFFTGD [GELS_HUMAN_86] 0.663

biological target: SHP2 N-SH2 domain T42A; test: as above; conditions: peptide library: Human pTyr

Enrichment score, inactive:
STNSEDNYVPMNPGS [GAB2_HUMAN_452] 0.447
DVSLDRGYTSDSEVY [GBF1_HUMAN_1316] 0.602
YDASSIQYRKAGLPR [GBRB2_HUMAN_441] 0.825
VPVDPATYGQFAGGD [GELS_HUMAN_465_YA] 0.552
VPVPTNLYGDFFTGD [GELS_HUMAN_86] 0.649

biological target: SHP2 N-SH2 domain T52S; test: as above; conditions: peptide library: Human pTyr

Enrichment score, inactive:
STNSEDNYVPMNPGS [GAB2_HUMAN_452] 0.565
DVSLDRGYTSDSEVY [GBF1_HUMAN_1316] 0.619
YDASSIQYRKAGLPR [GBRB2_HUMAN_441] 0.819
VPVDPATYGQFAGGD [GELS_HUMAN_465_YA] 0.62
VPVPTNLYGDFFTGD [GELS_HUMAN_86] 0.667

biological target: SHP2 N-SH2 domain wild-type; test: as above; conditions: peptide library: Human pTyr

Enrichment score, inactive:
STNSEDNYVPMNPGS [GAB2_HUMAN_452] 0.524
DVSLDRGYTSDSEVY [GBF1_HUMAN_1316] 0.645
YDASSIQYRKAGLPR [GBRB2_HUMAN_441] 0.605
VPVDPATYGQFAGGD [GELS_HUMAN_465_YA] 0.567
VPVPTNLYGDFFTGD [GELS_HUMAN_86] 0.647

biological target: SHP2 C-SH2 domain E139D; test: as above; conditions: peptide library: pTyr-Var

Enrichment score, inactive:
IWGKKYPTCNS [PTPRZ1_Y53_N48I] 1.01
PVGVLYKVKVY [PTS_Y128] 0.846
PVGVLYEVKVY [PTS_Y128_K129E] 1.39
PLGVLYKVKVY [PTS_Y128_V124L] 0.632
IVEFAYNDKAI [PUM3_Y259_YF] 0.576
ENRKFYKDLKE [PURA_Y156_M157K_YF] 0.845
LPVHFYGHVEH [PYGM_Y204] 1.29
TTPFNYSFIFK [RAB14_Y8_A4T_YF] 1.18
GACGGYCSVLG [RAB18_Y202] 0.797
GFILMYDITNE [RAB3C_Y110] 1.82
ALPGEYIPTVF [RAC1_Y32_F28L] 1.16
TGQEDYDRLRP [RAC1_Y64_A59T] 0.764
GGQEDYDRLRP [RAC3_Y64_A59G] 0.538
PSPTRYSLSPS [RANBP2_Y785] 0.651

biological target: SHP2 C-SH2 domain wild-type; test: as above; conditions: peptide library: pTyr-Var

Enrichment score, inactive:
IWGKKYPTCNS [PTPRZ1_Y53_N48I] 0.993
PVGVLYKVKVY [PTS_Y128] 0.967
PVGVLYEVKVY [PTS_Y128_K129E] 1.38
PLGVLYKVKVY [PTS_Y128_V124L] 0.987
IVEFAYNDKAI [PUM3_Y259_YF] 0.657
ENRKFYKDLKE [PURA_Y156_M157K_YF] 0.511
LPVHFYGHVEH [PYGM_Y204] 1.51
TTPFNYSFIFK [RAB14_Y8_A4T_YF] 2.16
GACGGYCSVLG [RAB18_Y202] 0.773
GFILMYDITNE [RAB3C_Y110] 1.87
ALPGEYIPTVF [RAC1_Y32_F28L] 0.865
TGQEDYDRLRP [RAC1_Y64_A59T] 0.477
GGQEDYDRLRP [RAC3_Y64_A59G] 0.535
PSPTRYSLSPS [RANBP2_Y785] 0.45

biological target: SHP2 N-SH2 domain L43F; test: as above; conditions: peptide library: pTyr-Var

Enrichment score, inactive:
IWGKKYPTCNS [PTPRZ1_Y53_N48I] 0.924
PVGVLYKVKVY [PTS_Y128] 1.01
PVGVLYEVKVY [PTS_Y128_K129E] 1.52
PLGVLYKVKVY [PTS_Y128_V124L] 0.777
IVEFAYNDKAI [PUM3_Y259_YF] 0.549
ENRKFYKDLKE [PURA_Y156_M157K_YF] 0.564
LPVHFYGHVEH [PYGM_Y204] 1.28
TTPFNYSFIFK [RAB14_Y8_A4T_YF] 1.51
GACGGYCSVLG [RAB18_Y202] 0.784
GFILMYDITNE [RAB3C_Y110] 2.54
ALPGEYIPTVF [RAC1_Y32_F28L] 1
TGQEDYDRLRP [RAC1_Y64_A59T] 0.509
GGQEDYDRLRP [RAC3_Y64_A59G] 0.481
PSPTRYSLSPS [RANBP2_Y785] 0.48

biological target: SHP2 N-SH2 domain T42A; test: as above; conditions: peptide library: pTyr-Var

Enrichment score, inactive:
IWGKKYPTCNS [PTPRZ1_Y53_N48I] 0.948
PVGVLYKVKVY [PTS_Y128] 0.593
PVGVLYEVKVY [PTS_Y128_K129E] 0.956
PLGVLYKVKVY [PTS_Y128_V124L] 0.958
IVEFAYNDKAI [PUM3_Y259_YF] 0.531
ENRKFYKDLKE [PURA_Y156_M157K_YF] 0.666
LPVHFYGHVEH [PYGM_Y204] 1.45
TTPFNYSFIFK [RAB14_Y8_A4T_YF] 1.59
GACGGYCSVLG [RAB18_Y202] 0.8
GFILMYDITNE [RAB3C_Y110] 1.63
ALPGEYIPTVF [RAC1_Y32_F28L] 0.817
TGQEDYDRLRP [RAC1_Y64_A59T] 0.565
GGQEDYDRLRP [RAC3_Y64_A59G] 0.467
PSPTRYSLSPS [RANBP2_Y785] 0.538

biological target: SHP2 N-SH2 domain T52S; test: as above; conditions: peptide library: pTyr-Var

Enrichment score, inactive:
IWGKKYPTCNS [PTPRZ1_Y53_N48I] 0.742
PVGVLYKVKVY [PTS_Y128] 0.643
PVGVLYEVKVY [PTS_Y128_K129E] 1.56
PLGVLYKVKVY [PTS_Y128_V124L] 0.561
IVEFAYNDKAI [PUM3_Y259_YF] 0.63
ENRKFYKDLKE [PURA_Y156_M157K_YF] 0.657
LPVHFYGHVEH [PYGM_Y204] 1.64
TTPFNYSFIFK [RAB14_Y8_A4T_YF] 1.17
GACGGYCSVLG [RAB18_Y202] 0.881
GFILMYDITNE [RAB3C_Y110] 2.74
ALPGEYIPTVF [RAC1_Y32_F28L] 0.886
TGQEDYDRLRP [RAC1_Y64_A59T] 0.601
GGQEDYDRLRP [RAC3_Y64_A59G] 0.457
PSPTRYSLSPS [RANBP2_Y785] 0.591

biological target: SHP2 N-SH2 domain wild-type; test: as above; conditions: peptide library: pTyr-Var

Enrichment score, inactive:
IWGKKYPTCNS [PTPRZ1_Y53_N48I] 0.921
PVGVLYKVKVY [PTS_Y128] 0.748
PVGVLYEVKVY [PTS_Y128_K129E] 1.79
PLGVLYKVKVY [PTS_Y128_V124L] 1.14
IVEFAYNDKAI [PUM3_Y259_YF] 0.615
ENRKFYKDLKE [PURA_Y156_M157K_YF] 0.733
LPVHFYGHVEH [PYGM_Y204] 1.64
TTPFNYSFIFK [RAB14_Y8_A4T_YF] 1.04
GACGGYCSVLG [RAB18_Y202] 0.608
GFILMYDITNE [RAB3C_Y110] 1.55
ALPGEYIPTVF [RAC1_Y32_F28L] 1.02
TGQEDYDRLRP [RAC1_Y64_A59T] 0.616
GGQEDYDRLRP [RAC3_Y64_A59G] 0.643
PSPTRYSLSPS [RANBP2_Y785] 0.558
